Numbering of substitutions follows the chain as printed; changes in the protein carry UniProt numbers. The list shows a part of the results.
T1: RBFOX1 RRM RbFoxmut (Fox-RRM*) (Homo sapiens, UniProt Q9NWB1 109-208, R118D;E147R;N151S;E152T)
T1 sequence: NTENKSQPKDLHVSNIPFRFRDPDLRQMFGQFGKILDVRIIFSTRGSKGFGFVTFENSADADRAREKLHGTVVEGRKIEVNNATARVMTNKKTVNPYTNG

B1: UCGAGGG (DNA:RNA)
RNA: GGGAGACCGGAAUUCAGAUUGUCCUCGAGGGUUAAAUCCCGUCGUAGCCACCA
DNA 1: CAATCTGAATTCCGGTCTCCC
DNA 2: TGGTGGCTACGACGGGATT
B2: AAUAGGC (DNA:RNA)
RNA: B1 RNA with U25A, C26A, G27U, G31C
DNA 1: CAATCTGAATTCCGGTCTCCC
DNA 2: TGGTGGCTACGACGGGATT
B3: UCUUGGU (DNA:RNA)
RNA: B1 RNA with G27U, A28U, G31U
DNA 1: CAATCTGAATTCCGGTCTCCC
DNA 2: TGGTGGCTACGACGGGATT
B4: UGAGACC (DNA:RNA)
RNA: B1 RNA with C26G, G27A, A28G, G29A, G30C, G31C
DNA 1: CAATCTGAATTCCGGTCTCCC
DNA 2: TGGTGGCTACGACGGGATT
B5: CCACAAC (DNA:RNA)
RNA: B1 RNA with U25C, G27A, A28C, G29A, G30A, G31C
DNA 1: CAATCTGAATTCCGGTCTCCC
DNA 2: TGGTGGCTACGACGGGATT
B6: UGUCGUU (DNA:RNA)
RNA: B1 RNA with C26G, G27U, A28C, G30U, G31U
DNA 1: CAATCTGAATTCCGGTCTCCC
DNA 2: TGGTGGCTACGACGGGATT
B7: ACGGCUG (DNA:RNA)
RNA: B1 RNA with U25A, A28G, G29C, G30U
DNA 1: CAATCTGAATTCCGGTCTCCC
DNA 2: TGGTGGCTACGACGGGATT
B8: AUGGACG (DNA:RNA)
RNA: B1 RNA with U25A, C26U, A28G, G29A, G30C
DNA 1: CAATCTGAATTCCGGTCTCCC
DNA 2: TGGTGGCTACGACGGGATT
B9: UUCACGC (DNA:RNA)
RNA: B1 RNA with C26U, G27C, G29C, G31C
DNA 1: CAATCTGAATTCCGGTCTCCC
DNA 2: TGGTGGCTACGACGGGATT
B10: CUGCCGG (DNA:RNA)
RNA: B1 RNA with U25C, C26U, A28C, G29C
DNA 1: CAATCTGAATTCCGGTCTCCC
DNA 2: TGGTGGCTACGACGGGATT
B11: AGGACUG (DNA:RNA)
RNA: B1 RNA with U25A, C26G, G29C, G30U
DNA 1: CAATCTGAATTCCGGTCTCCC
DNA 2: TGGTGGCTACGACGGGATT
B12: CACUUCA (DNA:RNA)
RNA: GGGAGACCGGAAUUCAGAUUGUCCCACUUCAUUAAAUCCCGUCGUAGCCACCA
DNA 1: CAATCTGAATTCCGGTCTCCC
DNA 2: TGGTGGCTACGACGGGATT
B13: AACUCGG (DNA:RNA)
RNA: B12 RNA with C25A, U29C, C30G, A31G
DNA 1: CAATCTGAATTCCGGTCTCCC
DNA 2: TGGTGGCTACGACGGGATT
B14: GACACAU (DNA:RNA)
RNA: B12 RNA with C25G, U28A, U29C, C30A, A31U
DNA 1: CAATCTGAATTCCGGTCTCCC
DNA 2: TGGTGGCTACGACGGGATT
B15: UUUACGG (DNA:RNA)
RNA: B1 RNA with C26U, G27U, G29C
DNA 1: CAATCTGAATTCCGGTCTCCC
DNA 2: TGGTGGCTACGACGGGATT
B16: GAACCCC (DNA:RNA)
RNA: B12 RNA with C25G, C27A, U28C, U29C, A31C
DNA 1: CAATCTGAATTCCGGTCTCCC
DNA 2: TGGTGGCTACGACGGGATT
B17: AACUCUC (DNA:RNA)
RNA: B12 RNA with C25A, U29C, C30U, A31C
DNA 1: CAATCTGAATTCCGGTCTCCC
DNA 2: TGGTGGCTACGACGGGATT
B18: GUUGAAA (DNA:RNA)
RNA: B12 RNA with C25G, A26U, C27U, U28G, U29A, C30A
DNA 1: CAATCTGAATTCCGGTCTCCC
DNA 2: TGGTGGCTACGACGGGATT
B19: AGAGCGG (DNA:RNA)
RNA: B1 RNA with U25A, C26G, G27A, A28G, G29C
DNA 1: CAATCTGAATTCCGGTCTCCC
DNA 2: TGGTGGCTACGACGGGATT
B20: CAAGUGA (DNA:RNA)
RNA: B12 RNA with C27A, U28G, C30G
DNA 1: CAATCTGAATTCCGGTCTCCC
DNA 2: TGGTGGCTACGACGGGATT
B21: UAUUGGA (DNA:RNA)
RNA: B12 RNA with C25U, C27U, U29G, C30G
DNA 1: CAATCTGAATTCCGGTCTCCC
DNA 2: TGGTGGCTACGACGGGATT
B22: AUUCCAA (DNA:RNA)
RNA: B12 RNA with C25A, A26U, C27U, U28C, U29C, C30A
DNA 1: CAATCTGAATTCCGGTCTCCC
DNA 2: TGGTGGCTACGACGGGATT
B23: AUAUACC (DNA:RNA)
RNA: B12 RNA with C25A, A26U, C27A, U29A, A31C
DNA 1: CAATCTGAATTCCGGTCTCCC
DNA 2: TGGTGGCTACGACGGGATT
B24: GGAGUCU (DNA:RNA)
RNA: B12 RNA with C25G, A26G, C27A, U28G, A31U
DNA 1: CAATCTGAATTCCGGTCTCCC
DNA 2: TGGTGGCTACGACGGGATT
B25: CCUUUCG (DNA:RNA)
RNA: B12 RNA with A26C, C27U, A31G
DNA 1: CAATCTGAATTCCGGTCTCCC
DNA 2: TGGTGGCTACGACGGGATT
B26: UUUCCAC (DNA:RNA)
RNA: B1 RNA with C26U, G27U, A28C, G29C, G30A, G31C
DNA 1: CAATCTGAATTCCGGTCTCCC
DNA 2: TGGTGGCTACGACGGGATT
B27: CUUCAAG (DNA:RNA)
RNA: B12 RNA with A26U, C27U, U28C, U29A, C30A, A31G
DNA 1: CAATCTGAATTCCGGTCTCCC
DNA 2: TGGTGGCTACGACGGGATT
B28: AGUGUGA (DNA:RNA)
RNA: B12 RNA with C25A, A26G, C27U, U28G, C30G
DNA 1: CAATCTGAATTCCGGTCTCCC
DNA 2: TGGTGGCTACGACGGGATT
B29: UCUGGAG (DNA:RNA)
RNA: B1 RNA with G27U, A28G, G30A
DNA 1: CAATCTGAATTCCGGTCTCCC
DNA 2: TGGTGGCTACGACGGGATT
B30: CCGGAUC (DNA:RNA)
RNA: B1 RNA with U25C, A28G, G29A, G30U, G31C
DNA 1: CAATCTGAATTCCGGTCTCCC
DNA 2: TGGTGGCTACGACGGGATT
B31: GGCUCAA (DNA:RNA)
RNA: B12 RNA with C25G, A26G, U29C, C30A
DNA 1: CAATCTGAATTCCGGTCTCCC
DNA 2: TGGTGGCTACGACGGGATT

Target: T1, RBFOX1 RRM RbFoxmut (Fox-RRM*)
Assay: EMSA; HiTS-Eq, 1 nM pool, 10 min; buffer printed only for the single-RNA assays: 10 mM Tris pH 7.5, 150 mM NaCl, 3.4 mM EDTA, 0.001% NP-40, 30 C
Settings: tags: His6 N-terminal (pET28a); label: 5' 32P
Summary of the method: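 A pool of RNA with 7 randomized nucleotides, 5′-radiolabelled and with DNA-annealed flanks, was equilibrated at 1 nM for 10 min in 50 µL with purified RbFox RRM, wild type or mutant, across increasing protein concentrations. Free RNA was separated by 8% native PAGE, excised, reverse-transcribed, barcoded by PCR and sequenced. Relative association constants were obtained from read-count changes of each RNA species versus the control reaction and normalised to the cognate motif.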

Row | Binder | binding signal
1 | B1 | 0.0948 KA relative to UGCAUGU
2 | B2 | 0.0859 KA relative to UGCAUGU
3 | B3 | 0.126 KA relative to UGCAUGU
4 | B4 | 0.0585 KA relative to UGCAUGU
5 | B5 | 0.0801 KA relative to UGCAUGU
6 | B6 | 0.0883 KA relative to UGCAUGU
7 | B7 | 0.165 KA relative to UGCAUGU
8 | B8 | 0.094 KA relative to UGCAUGU
9 | B9 | 0.0823 KA relative to UGCAUGU
10 | B10 | 0.0599 KA relative to UGCAUGU
11 | B11 | 0.256 KA relative to UGCAUGU
12 | B12 | 0.116 KA relative to UGCAUGU
13 | B13 | 0.069 KA relative to UGCAUGU
14 | B14 | 0.0778 KA relative to UGCAUGU
15 | B15 | 0.067 KA relative to UGCAUGU
16 | B16 | 0.0341 KA relative to UGCAUGU

Row | Binder | binding signal
17 | B17 | 0.0312 KA relative to UGCAUGU
18 | B18 | 0.0929 KA relative to UGCAUGU
19 | B19 | 0.0765 KA relative to UGCAUGU
20 | B20 | 0.0955 KA relative to UGCAUGU
21 | B21 | 0.0512 KA relative to UGCAUGU
22 | B22 | 0.0801 KA relative to UGCAUGU
23 | B23 | 0.11 KA relative to UGCAUGU
24 | B24 | 0.09 KA relative to UGCAUGU
25 | B25 | 0.101 KA relative to UGCAUGU
26 | B26 | 0.0902 KA relative to UGCAUGU
27 | B27 | 0.108 KA relative to UGCAUGU
28 | B28 | 0.114 KA relative to UGCAUGU
29 | B29 | 0.0838 KA relative to UGCAUGU
30 | B30 | 0.088 KA relative to UGCAUGU
31 | B31 | 0.0697 KA relative to UGCAUGU
